Source: PubChem BioAssay AID360 (National Center for Advancing Translational Sciences (NCATS), 2006)
In all, about 48,000 compounds went through this assay and about 550 (1.1%) were called active. Another 4% or so got no clear call; they are omitted. Rule as the data show it: active = potency below about 15 µM; inconclusive = mostly about 16 µM to 33 µM; inactive = weaker than that. The list shows a part of the results.

These molecules were tested against Lysosomal acid glucosylceramidase (Homo sapiens) (UniProt P04062) (assay: Glucocerebrosidase). Conditions: purified enzyme, resorufin glucoside fluorescence (screen aimed at inhibitors), 20 min.
UniProt P04062, sequence (P04062 whole entry, looked up): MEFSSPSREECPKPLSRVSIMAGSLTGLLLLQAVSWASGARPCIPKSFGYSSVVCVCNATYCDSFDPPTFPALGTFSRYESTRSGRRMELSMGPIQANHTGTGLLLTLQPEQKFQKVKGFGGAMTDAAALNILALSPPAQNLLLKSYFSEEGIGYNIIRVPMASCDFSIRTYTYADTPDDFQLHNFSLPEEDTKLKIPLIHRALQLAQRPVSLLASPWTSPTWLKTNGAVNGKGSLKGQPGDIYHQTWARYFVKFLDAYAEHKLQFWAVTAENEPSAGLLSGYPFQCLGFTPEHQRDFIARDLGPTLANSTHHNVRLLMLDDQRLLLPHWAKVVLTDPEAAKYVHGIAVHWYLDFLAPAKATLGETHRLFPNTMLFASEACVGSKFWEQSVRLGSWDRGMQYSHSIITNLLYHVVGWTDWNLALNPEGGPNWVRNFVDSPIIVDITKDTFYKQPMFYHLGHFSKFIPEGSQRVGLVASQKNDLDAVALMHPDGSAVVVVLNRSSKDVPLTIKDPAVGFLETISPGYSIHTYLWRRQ
In short: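 Normal human glucocerebrosidase (0.2 nM final) was assayed with resorufin β-D-glucopyranoside (30 uM final) in 50mM citric acid/KH2PO4, 10mM sodium taurocholate, 0.01% tween-20, pH 5.9. Compounds were titrated; fluorescence (Ex 548, Em 600) read after 20 min at RT.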
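Also: the screen sought inhibitors.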
Potency is read from the fitted curve at half-maximal effect.

Potency, inactive:
CCN(CC)CCCNC(=O)Cc1c(C(=O)O)n(C)c2ccccc12 > 76.9 µM
COC(=O)C1=C(C)Nc2ncnn2C1c1ccc(OC(=O)c2ccccc2)cc1 (stereo unspecified) > 76.9 µM
CCOc1ccc(/C(O)=C2/C(=O)C(=O)N(CCOCCO)C2c2cccnc2)cc1 (stereo unspecified) > 76.9 µM
Cc1c(C(C)O)nnn1-c1nonc1N (stereo unspecified) > 76.9 µM
CC12CCC(C(N)=O)(c3nc4ccccc4nc31)C2(C)C (stereo unspecified) > 76.9 µM
CCN(CC)S(=O)(=O)c1ccc(C(=O)OC2CCCCC2CN(C)C)cc1 (stereo unspecified)
O=C1c2ccccc2C(=O)N1OCCOCCOCCON1C(=O)c2ccccc2C1=O > 76.9 µM
COC(=O)n1c(=O)oc2cc(S(=O)(=O)N3CCCCC3)ccc21 > 76.9 µM
Cc1ccc(CNc2ccc3c(c2)OCO3)cc1 > 76.9 µM
CC1CCCC(C)N1C(=O)CSc1nnc(-c2c[nH]c3ccccc23)o1 (stereo unspecified) > 76.9 µM
CCOC(=O)c1c(C)n(C)c2ccc(O)c(CN3CCC(C)CC3)c12 > 76.9 µM
Cc1ccc(-c2nn3nnnc3c3ccccc23)cc1 > 76.9 µM
CCCCNC(=O)CN1C(=O)C(CC)Oc2ccc(Cl)cc21 (stereo unspecified) > 76.9 µM
Cn1c(=O)n(C)c2cc(C(=O)O)ccc21 > 76.9 µM
COCCn1nnnc1C(c1cc(OC)ccc1OC)N1CCc2ccccc2C1 (stereo unspecified) > 76.9 µM
Cc1cc(C)n(-c2nc3c(c(=O)n(Cc4ccc(Cl)c(Cl)c4)c(=O)n3C)n2C)n1 > 76.9 µM
C=CCn1c(N)c(C(=O)NC2CCCCC2)sc1=S > 76.9 µM
O=S(=O)(c1cc(F)cc(F)c1)N1CCN(c2ncccn2)CC1 > 76.9 µM
O=C(c1ccco1)N1CCN(C(=O)c2cnn3c2NC(c2cccs2)CC3C(F)(F)F)CC1 (stereo unspecified) > 76.9 µM
CC1CCCN(C(=O)CSc2nnc(-c3cccnc3)n2C2CCCCC2)C1 (stereo unspecified) > 76.9 µM
CCC(C)Sc1nc2c(c(=O)[nH]c(=O)n2C)n1C (stereo unspecified) > 76.9 µM
O=C(CSc1ncn[nH]1)N1CCN(c2nnc(-c3ccccc3)c3ccccc23)CC1 > 76.9 µM
CN1CCN(C(=O)CCn2nc(-c3ccccc3)c3ccccc3c2=O)CC1 > 76.9 µM
O=C1C2ON(c3ccc(Br)cc3)C(c3cccnc3)C2C(=O)N1C1CCCCC1 (stereo unspecified) > 76.9 µM
CCOC(=O)c1cc2n(n1)C(C(F)(F)C(F)(F)F)CC(C)N2 (stereo unspecified) > 76.9 µM
CCn1cc(C(=O)NCc2ccco2)c(=O)c2cc(S(=O)(=O)N3CCc4ccccc4C3)ccc21 > 76.9 µM
CC(=O)N1CCc2cc(S(=O)(=O)NCCN3CCC(C)CC3)ccc21 > 76.9 µM
Cc1ccc2[nH]c(=O)c(CN(CC3CCCO3)C(=O)c3ccncc3)cc2c1 (stereo unspecified) > 76.9 µM
O=C(Nc1ccc(-n2nncc2-c2ccco2)cc1)c1cccc(F)c1 > 76.9 µM
COc1ccc(CN2CC(C(=O)N3CCOCC3)CC2=O)cc1 (stereo unspecified) > 76.9 µM
COc1ccc(O)c(/C=c2/sc3nc4cc(C)c(C)cc4n3c2=O)c1 > 76.9 µM
COc1ccc(CCNC(=O)C2CCN(S(=O)(=O)N3CCCCC3)CC2)cc1OC > 76.9 µM
O=C1c2sc3nc4ccccc4n3c2C(=O)N1c1ccccc1Cl > 76.9 µM
COc1ccc(NC(=O)CCOc2ccccc2)c(OC)c1 > 76.9 µM
CCCCn1c(SCC(=O)N2CCC(C(=O)OCC)CC2)nc2cc(S(N)(=O)=O)ccc21 > 76.9 µM
O=C(O)CCC(=O)NC1CCCCCCC1 > 76.9 µM
c1ccc(CCn2nnnc2CN2CCN(C3CCCC3)CC2)cc1 > 76.9 µM
COC(=O)c1[nH]c2cccc(OC)c2c1NC(=O)CCN1CCN(c2ccccc2F)CC1 > 76.9 µM
O=C(Nc1ccc(OC(=O)c2ccco2)cc1)c1ccco1 > 76.9 µM
CCOC(=O)c1ccc(NC(=O)CSc2nnc(CNC(=O)c3ccccc3F)o2)cc1 > 76.9 µM
CSCCC(NC(N)=O)C(=O)NCc1ccccc1Cl (stereo unspecified) > 76.9 µM
O=c1[nH]nnc2sc3c(c12)CCCC3 > 76.9 µM
COc1ccc(NC(=O)Nc2ccc(C(=O)N3CCOCC3)cc2)cc1 > 76.9 µM
CSc1nnc(-c2ccc(S(=O)(=O)N3CCOCC3)cc2)n1CC1CCCO1 (stereo unspecified) > 76.9 µM
CS(=O)(=O)N(CCC(=O)O)Cc1ccccc1 > 76.9 µM
COc1ccc2nc(SCC(=O)Nc3ccc4c(c3)OCCO4)[nH]c2c1 > 76.9 µM
COc1ccc2cc3cc(C(=O)NCCCN4CCOCC4)oc3nc2c1 > 76.9 µM
COc1ccc(N2CCN(c3oc(COc4ccc(Cl)cc4Cl)nc3C#N)CC2)cc1 > 76.9 µM
COc1cccc(-c2nc(CC(=O)O)cs2)c1OC > 76.9 µM
Cc1c(C(=O)NC2CCCc3ccccc32)oc2ccc(S(=O)(=O)N3CCOCC3)cc12 (stereo unspecified) > 76.9 µM
CCOC(=O)C1Cc2cc3c(cc2C1=O)CC(C(=O)OCC)C3=O (stereo unspecified) > 76.9 µM
COc1nc(OC)nc(N2CCC(C(=O)Nc3cccc4ccccc34)CC2)n1 > 76.9 µM
O=C(C1CCC1)N1CCc2cc(S(=O)(=O)N3CCCCC3)ccc21 > 76.9 µM
Cc1cccc(-c2nsc(SCC(=O)Nc3nccs3)n2)c1 > 76.9 µM
CCOC(=O)c1c(C)oc2c(F)c(F)c(F)c(F)c2c1=O > 76.9 µM
CCC(=O)c1ccccc1OCCCn1cncn1 > 76.9 µM
Cc1cc(C)c(NC(=O)CSc2nnc(-c3ccncc3)n2Cc2ccco2)c(C)c1 > 76.9 µM
CCOC(=O)C1=C(C)N=c2s/c(=C\c3ccncc3)c(=O)n2C1c1ccc2c(c1)OCO2 (stereo unspecified) > 76.9 µM
O=C(CS(=O)CC(=O)N(CC(=O)NC1CCCC1)C1CCCCC1)Nc1ccc(F)cc1 (stereo unspecified) > 76.9 µM
Clc1ccccc1-c1nc(-c2cccnc2)no1
COc1ccc2c(c1)c(C(O)CN1CCN(Cc3ccc4c(c3)OCO4)CC1)c(C)n2C (stereo unspecified) > 76.9 µM
Cc1cc(C)n(C2=NS(=O)(=O)c3ccccc32)n1 > 76.9 µM
COc1ccc2c(C)nc(Nc3nc(C)cc(=O)[nH]3)nc2c1 > 76.9 µM
COc1cccc(OCc2nc3c4cnn(-c5ccccc5)c4ncn3n2)c1 > 76.9 µM
CS(=O)(=O)Nc1ccc(C(=O)NCc2ccc3c(c2)OCO3)cc1 > 76.9 µM
O=C(O)c1cccc(CSc2nnc(COc3ccccc3)o2)c1 > 76.9 µM
O=C(CSc1nc2ccccc2c(=O)n1Cc1ccco1)NCc1ccccc1 > 76.9 µM
CSc1ccc(C2C3(C#N)C(N)=NC4(OCCO4)C23C#N)cc1 (stereo unspecified) > 76.9 µM
CC(NO)C(C)(C)NO (stereo unspecified) > 76.9 µM
CC1(C)N([O-])C(c2cccs2)=C[N+]1=O > 76.9 µM
O=C(N1CCOCC1)N1CCN(c2nc(-c3ccc(F)cc3)cs2)CC1 > 76.9 µM
CN(c1ccccc1C(N)=O)S(=O)(=O)c1ccccc1 > 76.9 µM
CCN(CC)C(=O)CC(c1ccc(F)cc1)c1ccco1 (stereo unspecified) > 76.9 µM
CCn1c2ccccc2c2cc(NC(=O)Cc3ccc(S(=O)(=O)N4CCOCC4)s3)ccc21 > 76.9 µM
COc1cc(C)c(S(=O)(=O)N2CCN(C)CC2)cc1C > 76.9 µM
CC(=O)N1CCC2(CC1)C(C#N)=C(N)Oc1n[nH]c(C)c12 > 76.9 µM
O=C(N1CCOCC1)N(Cc1ccco1)CC1CCCO1 (stereo unspecified) > 76.9 µM
CCSc1ccccc1C(=O)NCCCn1ccnc1 > 76.9 µM
O=C(OCC(=O)N1CCN(C(=O)c2ccco2)CC1)c1cc(-c2ccccc2)nc2ccccc12 > 76.9 µM
CCCCOc1ccc(-c2nnn(C(C)C(=O)OCC)n2)cc1 (stereo unspecified) > 76.9 µM
COc1cc(OC)cc(C(=O)NCC(=O)N2CCCCC2)c1 > 76.9 µM
CS(=O)(=O)c1ccc2nc(NC(=O)C3C4C=CC(C4)C3C(=O)O)sc2c1 (stereo unspecified) > 76.9 µM
CC1CCCN(C(C(=O)Nc2ccc3c(c2)OCCO3)c2ccccc2)C1 (stereo unspecified) > 76.9 µM
O=C(Cc1ccc(-n2cccc2)cc1)NC1CCCCC1 > 76.9 µM
CSc1ccccc1NS(=O)(=O)c1ccc2c(c1)OCCO2 > 76.9 µM
O=C(OCC(=O)N1CCOCC1)c1ccccc1SCC(=O)N1CCCC1 > 76.9 µM
Nc1nnc(SCC(=O)N2CCN(c3ccccc3)CC2)n1-c1ccccc1 > 76.9 µM
CC(=O)NC(CCS(C)(=O)=O)C(=O)Nc1ccc(C)c(F)c1 (stereo unspecified) > 76.9 µM
Cc1c2c(nc3c(C)cccc13)OC(C)C2 (stereo unspecified) > 76.9 µM
Cc1ccccc1N=C1Nc2ccccc2CS1 > 76.9 µM
COc1ccccc1N1CCN(C(=O)c2cc(-c3ccc(C)cc3)on2)CC1 > 76.9 µM
